# Assay results: the supplement of paper PMC11417369
# This is one part of the list.
# Tested on: PfSIP2 AP2 domain 1 (GST-tagged)
# Assay: gcPBM binding intensity (ln(normalized median fluorescence intensity)); higher = stronger DNA binding
# How it was run: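 GST-tagged P. falciparum DNA-binding domains, expressed in E. coli (about 25 μg on average), were applied for 1 h to an Agilent 4 × 180k array of primer-extended double-stranded 36-bp intergenic genomic probes plus negative controls. The binding buffer was 1× PBS with 1% milk, 0.2 mg/ml BSA, 0.5% salmon testes DNA and 0.03% Triton X-100. Bound protein was detected with Alexa488 anti-GST antibody and scanned at 488 nm. Binding intensity is the highest Masliner-normalised natural-log median intensity across replicate spots of either probe orientation.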
row,Sequence,gcPBM binding intensity (ln)
1,AAACAACATATATTAATATGTACATATATATAGATA [GTGCAC_negctrl_site229],7.08
2,TTTTTTTTTTTTGTAACACACAATAATATAACATTA [CACACA_site3411],6.87
3,TTTTTATTGTTATAGTTATAATATATTATTTGATTA [XGTACX_negctrl_site27],7.04
4,AATAATTGTTAAAGCTGTACAATACTTATATAAGAA [XGTACX_site5729],7.09
5,TATCCTAACTTTAGATGTACACAAATAAAAAAAAAA [XGTACX_site4491],7.37
6,CCATATAAAATATAAAAACACACGTATATATACATA [CACACA_site1511],6.88
7,ATTCAATCTTTTAATACACACAATTTATTTCAAAAC [CACACA_site835],7.07
8,ACAAAATGTAGAAAATGTACAAAATTAACAAAAGAA [XGTACX_site5019],7.28
9,TGTACATATATATAGATATATATAGATATATATATA [CACACA_negctrl_site1678],8.69
10,TTTTAAAAAGATCATTAAAAAAAAAAAAAGAACAAA [CACACA_negctrl_site528],6.88
11,ATAATATAACAATACGCACACGTATACAAAAAAAAA [CACACA_site5703],7.25
12,AAATAATGGTTAGCTACACACAAAGCATTTTTTGAA [CACACA_site1016],6.66
13,AAAATACAAACAAGTGGTACTGTTTATAAATGGTTG [XGTACX_site1503],6.81
14,TTGTATATATTTATATGTACATATATTACTTTTGCT [XGTACX_site2449],7.15
15,TGTCTTGTAAATTATTGTACTATTTAAAGTATACAA [XGTACX_site7864],7.21
16,TTGATTACACTGAAGTGTACATATATATATATATAT [XGTACX_site3532],9.07
17,AATATCCACATTAGGAGTACACAGCTAACTGTTTGA [XGTACX_site3357],6.94
18,TTTTATATAAAATCGTGTACATACCATTTCCTATTA [XGTACX_site5159],7.06
19,AAAAAAAAAAGAAACACACACATTTGTATATAATAT [CACACA_site2078],6.91
20,AAATAATAAAAAAAATGTACACGTAAATATTATATT [XGTACX_site8125],7.17
21,CATATAAAAATGTGCACACACACACCCATATATATT [CACACA_site1526],9.06
22,AAAATTAATAAATAAACACACATATATATATATATA [CACACA_site2598],9.24

row,Sequence,gcPBM binding intensity (ln)
1,TTTTTGCCATATTACACACACACATGTAAACCCCCT [CACACA_site1647],8.17
2,GTGAAATATGCAAACACACACGAGAAAAATGTATAT [CACACA_site7488],7.35
3,CAAAACAAAACGTATGCACACAATTAATATATTAAA [CACACA_site3405],7.9
4,AGAGTTCTCATATGCACACAAAAAACTTTCATTTAT [CACACA_site45],8.3
5,AAATAAATCTTATGCACACAAATAATTAATTAAACA [CACACA_site1693],8.36
6,TATTTTTTTCTTACATACTAATTTGGTACTCACATA [TGCATGCA_negctrl_site81],7.1
7,AACCCCGTGGAAATATGTACATATAAATATATAAAT [XGTACX_site2094],6.99
8,TAAATAAGCACATACACACATACATACATACATAAA [CACACA_site4017],7.22
9,ATAAAATGATAAATTTGTACACAAAAAAAAAAAAAA [XGTACX_site964],6.95
10,AAAATAAAATATTTCTGTACTTATAACTATTCTATA [XGTACX_site8007],6.88
11,GGGTATACAAATAAACGTACAAACTCATAAAAAAAA [XGTACX_site3191],7.11
12,CATATATAACAATTCTCACACATAAAAAAAAAAAAT [CACACA_site4564],7.05
13,TTAAAAAAATATAATACACACCAAAAATATGCACAT [CACACA_site5209],9.27
14,TTTTTATGGTAAATAAAAATATCTCCCTCCTTAATT [CACACA_negctrl_site1352],6.68
15,TAATAATTTATAATAGTGCATTTGATTTTAAAAATA,8.81
16,TCTTTTTAAACTAATAGTACATATATATTAATAAAT [XGTACX_site4217],7.14
17,ATTTACATAAATTGCATATATCGATGTAAATAAATA [CACACA_negctrl_site1150],7.04
18,ATATATATATATATATGTACATATATTTATTTATTG [XGTACX_site6267],9.79
19,CATTTATTTTTGTTCTGTACATAAAGATGAACAAAA [XGTACX_site6797],7.25
20,ATAAATATGTAAAAAACATGCAAAAAATTAAAGACA [TGCATGCA_site912],7.08
21,TCATAGTAGAAACACACACACACACCCATATATATA [CACACA_site1737],7.58
22,GGAAACAAAAAATATATACACACTAAACATAAAAAA [CACACA_site20],6.89

row,Sequence,gcPBM binding intensity (ln)
1,AACGCACATATATTTATGTATATATATATATATATA [GTGCAC_negctrl_site478],9.51
2,TTATTAAATAAAATCATGCACACAATATATATTTTA [CACACA_site2496],7.78
3,GTTATTAAACAGAAAAGTACATATGTATATTAAAAT [XGTACX_site3724],7.28
4,TAAAAAAAAAGAAGCTGTACTAAAAAATTTATATTA [XGTACX_site7408],6.74
5,TTATTACATAACAATATACACACTATTGATTAAAGA [CACACA_site2933],7.01
6,AAATTCATAAAAATATTTTATAATTATATATAGAAT [TGCATGCA_negctrl_site343],6.74
7,GGGTTTTTTATTAATACATGCATGGAAACGCACTAT [TGCATGCA_site1000],10.3
8,ATATATATATAATTTGTACACACAAATATGCATATA [CACACA_site9136],8.94
9,AAGAAAAACAATGAGATAAAGAAGAGAAAATATGTC [TGCATGCA_negctrl_site415],7.24
10,AATACTAAAAAGTGTACACATACATAAAAAATTGCA [CACACA_site5620],7.47
11,AAGAAAAAAGTTATTAGTACACATTATAATAAAAAG [XGTACX_site3527],7.19
12,TATTGATTTATAAACACACACTCGAAGATGTTTAAC [CACACA_site4760],6.93
13,TATATCTCATAGTATACACACACACCCACCCACATA [CACACA_site8513],7.44
14,TATATATATGTAAATCGTACAAATTATATATATCAT [XGTACX_site2821],7.19
15,TAATTTTCTTTTTATCGTTTTTTTTTTTTTTTTTTT [XGTACX_negctrl_site432],7.79
16,CATTATGTTGTAAATACACACATACATATACATACA [CACACA_site8143],7.06
17,ATATATTATTTCTAGTGTACATACCCATATATAATA [XGTACX_site8902],7.29
18,ATAAATAAGATATATACACACATATCTATACATATT [CACACA_site6369],6.89
19,AATCCACTTTTTTATGTTATACAATATAAATTAAAT [XGTACX_negctrl_site446],7.13
20,ATTTAAGAAAAAAGTTGTACTTATTTATTTTTATTT [XGTACX_site5561],6.99
21,GGCTAAAAGGGGCACACACACAAAAAAAAAAAAAAA [CACACA_site3288],8.53
22,TAAAAAATAAATATATGTACATATTTATTTTTTTTT [XGTACX_site850],7.03

row,Sequence,gcPBM binding intensity (ln)
1,ATATTTTTTTTTTCGTGTACGCATAAATATATCTAA [XGTACX_site3360],7.3
2,TAGATAAACAAGAAATGTACAAACGTAAATATGTTC [XGTACX_site2373],6.73
3,ACAAAAATAAACTATAGTACACACTTATTATTATGA [XGTACX_site5680],6.91
4,TCATTTTATTTTTTCACACACACATCTATATTTATA [CACACA_site7547],7.36
5,TAAGTAACTTTTAAAAGTACCCACACATATATATAT [XGTACX_site1231],9.01
6,TTTCTTTTTTTTTTTTTTTTTTTTTTTTTTTTTTTT [TGCATGCA_negctrl_site91],8.99
7,TTTCCCTTGTTGTAAACATGCACAATATTTAGGTAT [TGCATGCA_site49],7.99
8,AAAAAAAAGAAAAACACACACATATATATATAGAAT [CACACA_site1006],6.98
9,TTATGTATTTATATAAATATAAATATATATATATAT [CACACA_negctrl_site774],9.1
10,TATATTTATAGGTATACACACATATGTATGTTATGT [CACACA_site7824],7.03
11,ATACATATAAATAATTGTACTATTAAAAAAGAACGT [XGTACX_site3751],7.3
12,AAAAAAAAAAATACTCGTACATAAACCTATACATTT [XGTACX_site6494],6.98
13,CAATTAGCATTTTATTGTACATTTATAATCTATGAT [XGTACX_site1445],7.01
14,ATAATATATTTTTGTAGTACACTTCTGGTAATATCG [XGTACX_site2402],7.22
15,AGTATACAGATATATACACACATATATATATATATA [CACACA_site4323],9.59
16,CTTAGAATATATGAATGTACTTTTTTTTTTAAATAA [XGTACX_site6048],7.09
17,TATATATATATATGTTGTACAAAAATGTAAAATATA [XGTACX_site7761],9.4
18,ATAATATTAATATGTACACACCTTAATCCTTAAAAG [CACACA_site7640],7.15
19,GTATTTATATGATTAACACACATATGGGTATTAATA [CACACA_site4853],6.96
20,ATAATTTTTTAAGTGTGTACTAAAATGTGTATTTTA [XGTACX_site6227],7.06
21,TATACCTGAATTAAAAGTACATGTATATATTTTCCC [XGTACX_site3594],6.99
22,TTGCATTTTCTAGTAACACACAATTAGCGTTGCTGT [CACACA_site3594],6.84
